Results taken from US20200362051A1 (CRESCENDO BIOLOGICS, published 2020).

B1: Humabody VH 3.8 (VHH)
VHH: EVQLLESGGGLVQPGGSLRLSCAASGFSFSSYALSWVRQAPGKGLEWVSSIGENDGTTDYAD[not shown - about 20 residues]MNSLRVEDTAVYYCVKDGVHWGQGTLVTVSS
B2: 3.8-6GS-VH HSA-6GS-1.113-4GS (bispecific antibody)
chain: EVQLLESGGGLVQPGGSLRLSCAASGFSFSSYALSWVRQAPGKGLEWVSSIGENDGTTDYAD[not shown - about 20 residues]MNSLRVEDTAVYYCVKDGVHWGQGTLVTVSSGGGGSGGGGSGGGGSGGGGSGGGGSGGGGSEVQLVESGGGLVQPGRSLRLSCAASGFTFHHYAMHWVRQAPGKGLEWVSGISWNGNKITYADSVKGRFTISRDNAKNSLYLQMNSLRAEDTALYYCVRDSSLFIVGAPTFEHWGRGTLVTVSSGGGGSGGGGSGGGGSGGGGSGGGGSGGGGSEVQLVESGGGLVQPGGSLRLSCAASGFTLSNYWMNWVRQAPGKGLEWVANINQDGSERYYVDSVKGRFTISRDNAKNSLYLQMNSLRAEDTAVYYCARGGEGYGVDHYGLDVSGQGTTVTVSSGGGGSGGGGSGGGGSGGGGS
notes: Trispecific single-chain fusion of three VH domains (PSMA, human serum albumin, CD137)
B3: 3.8-6GS-1.113-6GS-VH HSA 4GS (bispecific antibody)
chain: EVQLLESGGGLVQPGGSLRLSCAASGFSFSSYALSWVRQAPGKGLEWVSSIGENDGTTDYAD[not shown - about 20 residues]MNSLRVEDTAVYYCVKDGVHWGQGTLVTVSSGGGGSGGGGSGGGGSGGGGSGGGGSGGGGSEVQLVESGGGLVQPGGSLRLSCAASGFTLSNYWMNWVRQAPGKGLEWVANINQDGSERYYVDSVKGRFTISRDNAKNSLYLQMNSLRAEDTAVYYCARGGEGYGVDHYGLDVSGQGTTVTVSSGGGGSGGGGSGGGGSGGGGSGGGGSGGGGSEVQLVESGGGLVQPGRSLRLSCAASGFTFHHYAMHWVRQAPGKGLEWVSGISWNGNKITYADSVKGRFTISRDNAKNSLYLQMNSLRAEDTALYYCVRDSSLFIVGAPTFEHWGRGTLVTVSSGGGGSGGGGSGGGGSGGGGS
notes: Trispecific single-chain fusion of three VH domains (PSMA, CD137, human serum albumin)
B4: 3.8-6GS-1.113 (bispecific antibody)
chain: EVQLLESGGGLVQPGGSLRLSCAASGFSFSSYALSWVRQAPGKGLEWVSSIGENDGTTDYAD[not shown - about 20 residues]MNSLRVEDTAVYYCVKDGVHWGQGTLVTVSSGGGGSGGGGSGGGGSGGGGSGGGGSGGGGSEVQLVESGGGLVQPGGSLRLSCAASGFTLSNYWMNWVRQAPGKGLEWVANINQDGSERYYVDSVKGRFTISRDNAKNSLYLQMNSLRAEDTAVYYCARGGEGYGVDHYGLDVSGQGTTVTVSS
notes: the tested construct may be that one

Columns and labels:
[1] = target: T1, human CD137-human Fc chimeric protein (Acro Biosystems cat no. 41B-H5258) (human, UniProt Q07011 24-186); experiment: dual binding cell based ELISA: serially diluted VH on plated CHO human PSMA cells, then 1 nM CD137huFc, detection with anti human Fc-HRP, absorbance 450 nm
T1 construct: Bought protein; also called CD137-Fc tag protein; CD137huFc; not shown: human IgG1 Fc
Experimental: Association 1—Binding of the trispecific molecule to CD137Fc captured on protein G biosensors. Association 2—binding of Human serum Albumin, Association 3—Binding of PSMA in the presence of Human serum albumin to minimise HSA dissociation. […] Dual target engagement of CD137 and PSMA by the bispecific molecules was assessed using an ELISA format and by flow cytometry with T cells. For ELISA, CHO-PSMA cells (20000/well) were seeded into 96 well plates (Greiner cat no. 353872) in Hams F12 supplemented with L-Glutamine+Blasticidin+Tetracycline and incubated at 37° C. with 5% CO₂ overnight. All subsequent steps were performed at room temperature and included washes with PBS between each step. Plates were blocked with PBS/0.1% BSA for 1 hour then serially diluted Humabody® VH were added and allowed to bind for 1 hour. Following removal of unbound VH, 1 nM CD137huFc (Acro Biosystems cat no. 41B-H5258) was added to the wells and incubated for 1 hour. A 1:3000 dilution of Anti-huFc-HRP (Jackson ImmunoResearch cat no. 109-035-098) was subsequently added for 1 hour and plates developed by addition of TMB. The reaction was stopped by addition of 0.5M sulphuric acid and plates read on BMG PheraStar at Absorbance 450 nm. […] Fluorescence was measured in the RL2-H channels (Live/Dead stain) and BL1-H channel (AlexaFluor488 stain) on the iQue Plus Screener (IntelliCyt). […]

[2] = target: T2, human PSMA expressed on cells (human, UniProt Q04609); experiment: dual-binding cell ELISA: CHO-PSMA cells, bound construct detected with 1 nM CD137huFc and anti-huFc-HRP; average ± SD, n=3
T2 construct: Type II membrane glycoprotein; also called CHO human PSMA; CHO PSMA
T2 sequence (Q04609 whole entry): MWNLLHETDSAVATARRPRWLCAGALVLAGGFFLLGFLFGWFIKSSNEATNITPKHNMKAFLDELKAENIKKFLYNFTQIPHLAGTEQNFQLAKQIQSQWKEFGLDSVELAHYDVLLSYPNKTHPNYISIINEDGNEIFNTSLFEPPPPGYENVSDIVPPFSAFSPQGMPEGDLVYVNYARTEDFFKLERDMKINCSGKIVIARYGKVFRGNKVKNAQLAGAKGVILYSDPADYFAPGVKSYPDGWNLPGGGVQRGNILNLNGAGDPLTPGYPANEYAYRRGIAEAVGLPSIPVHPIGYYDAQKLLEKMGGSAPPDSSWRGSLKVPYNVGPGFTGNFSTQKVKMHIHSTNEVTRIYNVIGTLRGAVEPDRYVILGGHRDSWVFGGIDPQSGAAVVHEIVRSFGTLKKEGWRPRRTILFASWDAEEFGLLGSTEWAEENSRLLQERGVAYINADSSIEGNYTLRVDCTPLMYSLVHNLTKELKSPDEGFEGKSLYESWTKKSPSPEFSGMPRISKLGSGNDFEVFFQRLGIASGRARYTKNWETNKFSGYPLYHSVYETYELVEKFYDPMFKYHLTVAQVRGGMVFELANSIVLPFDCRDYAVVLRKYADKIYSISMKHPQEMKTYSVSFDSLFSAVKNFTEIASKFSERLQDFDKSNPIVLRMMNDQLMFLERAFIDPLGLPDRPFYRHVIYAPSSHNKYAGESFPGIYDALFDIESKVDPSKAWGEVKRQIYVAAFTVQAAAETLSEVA
Experimental: (§1) Dual target engagement of CD137 and PSMA by the bispecific molecules was assessed using an ELISA format and by flow cytometry with T cells. For ELISA, CHO-PSMA cells (20000/well) were seeded into 96 well plates (Greiner cat no. 353872) in Hams F12 supplemented with L-Glutamine+Blasticidin+Tetracycline and incubated at 37° C. with 5% CO₂ overnight. All subsequent steps were performed at room temperature and included washes with PBS between each step. Plates were blocked with PBS/0.1% BSA for 1 hour then serially diluted Humabody® VH were added and allowed to bind for 1 hour. Following removal of unbound VH, 1 nM CD137huFc (Acro Biosystems cat no. 41B-H5258) was added to the wells and incubated for 1 hour. A 1:3000 dilution of Anti-huFc-HRP (Jackson ImmunoResearch cat no. 109-035-098) was subsequently added for 1 hour and plates developed by addition of TMB. The reaction was stopped by addition of 0.5M sulphuric acid and plates read on BMG PheraStar at Absorbance 450 nm. […] Human CD8+ T cells pre-stimulated for 48 hours with PMA/ionomycin were washed with FACS buffer (PBS supplemented with 10% human serum and 0.05% sodium azide) by centrifugation. Serially diluted bispecific and trispecific Humabody VH construct were added to the cells for 1 hour on ice. Plates were washed with FACS buffer then detection mix containing 5 nM biotinylated-PSMA, 20 nM Streptavidin AlexaFluor488 and Live/Dead NearIR cell stain dilution added. Plates were incubated at 4° C. for 1 hour then washed twice with FACS buffer by centrifugation. Cells were fixed by addition 1× BD Cell fix solution, then washed twice with PBS by centrifugation and the cell pellets resuspended in PBS. Fluorescence was measured in the RL2-H channels (Live/Dead stain) and BL1-H channel (AlexaFluor488 stain) on the iQue Plus Screener (IntelliCyt). The bispecific and trispecific molecules were able to simultaneously bind human CD8+ T cells and PSMA protein.

[3] = target: T3, human CD137 expressed on cells (human, UniProt Q07011 24-255); experiment: dual-binding flow cytometry: pre-stimulated human CD8+ T cells, bound construct detected with 5 nM biotinylated-PSMA and streptavidin-AlexaFluor488; average ± SD, at least 6 donors
T3 construct: Whole entry with its signal peptide; also called 4-1BB; TNFRS9
Experimental: as §1, with “Serially diluted bispecific and trispecific Humabody VH construct were added to the cells for 1 hour on ice. Plates were washed with FACS buffer then detection mix containing 5 nM biotinylated-PSMA, 20 nM Streptavidin AlexaFluor488 and Live/Dead NearIR cell stain dilution added. Plates were incubated at 4° C. for 1 hour then washed twice with FACS buffer by centrifugation. Cells were fixed by addition 1× BD Cell fix solution, then washed twice with PBS by centrifugation and the cell pellets resuspended in PBS.” left out, “The bispecific and trispecific molecules were able to simultaneously bind human CD8+ T cells and PSMA protein.” left out

Binder | binding result [1] | EC50 [2] [nM] | EC50 [3] [nM]
B1 | no binding (tested: 1e-7 M (log10 -7)) | – | –
B2 | – | 2.5 | –
B3 | – | 1.6 | –
B4 | – | 1.3 | 0.87
